# Source: the supplement of paper PMC8728848
# The list shows a part of the results.
# B1: PNGase F (Flavobacterium meningosepticum) (protein)
# chain: GIPAPADNTVNIKTFDKVKNAFGDGLSQSAEGTFTFPADVTAVKTIKMFIKNECPNKTCDEWDRYANVYVKNKTTGEWYEIGRFITPYWVGTEKLPRGLEIDVTDFKSLLSGNTELKIYTETWLAKGREYSVDFDIVYGTPDYKYSAVVPVVQYNKSSIDGVPYGKAHTLALKKNIQLPTNTEKAYLRTTISGWGHAKPYDAGSRGCAEWCFRTHTIAINNSNTFQHQLGALGCSANPINNQSPGNWTPDRAGWCPGMAVPTRIDVLNNSLIGSTFSYEYKFQNWTNNGTNGDAFYAISSFVIAKSNTPISAPVVTNLDPHHHHHH
# Assays:
# Experiment in all cases: glycan array binding signal (z-score within array); higher = stronger binding
# Conditions in all cases: glycan notation: IUPAC condensed, linker removed
# [1] = target: Neu5Ac(a2-3)Gal(b1-4)GlcNAc(b1-6)GalNAc
# Summary of the method: (§1)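 Arrays were curated from the Consortium for Functional Glycomics database, 3228 in total, and kept only where the protein sequence was available. Binding is expressed as a within-array Z-score. This score was averaged across arrays of the same protein sequence at different concentrations or buffers and across linkers, and negative values can be read as non-binding.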
# [2] = target: Neu5Ac(a2-3)Gal(b1-4)GlcNAc(b1-6)[Gal(b1-3)]GalNAc
# Summary of the method: as §1
# [3] = target: Neu5Ac(a2-3)Gal(b1-4)GlcNAc(b1-6)[Neu5Ac(a2-3)Gal(b1-3)]GalNAc
# Summary of the method: as §1
# [4] = target: Neu5Ac(a2-3)Gal(b1-4)GlcNAc6S
# Summary of the method: as §1
# [5] = target: Neu5Ac(a2-3)Gal(b1-4)[Fuc(a1-3)]GlcNAc
# Summary of the method: as §1
# [6] = target: Neu5Ac(a2-3)Gal(b1-4)[Fuc(a1-3)]GlcNAc(b1-2)Man
# Summary of the method: as §1
# [7] = target: Neu5Ac(a2-3)Gal(b1-4)[Fuc(a1-3)]GlcNAc(b1-3)Gal
# Summary of the method: as §1
# [8] = target: Neu5Ac(a2-3)Gal(b1-4)[Fuc(a1-3)]GlcNAc(b1-3)Gal(b1-4)GlcNAc
# Summary of the method: as §1
# [9] = target: Neu5Ac(a2-3)Gal(b1-4)[Fuc(a1-3)]GlcNAc(b1-3)Gal(b1-4)[Fuc(a1-3)]GlcNAc(b1-3)Gal(b1-4)[Fuc(a1-3)]GlcNAc
# Summary of the method: as §1
# [10] = target: Neu5Ac(a2-3)Gal(b1-4)[Fuc(a1-3)]GlcNAc(b1-3)GalNAc
# Summary of the method: as §1
# [11] = target: Neu5Ac(a2-3)Gal(b1-4)[Fuc(a1-3)]GlcNAc(b1-6)[Gal(b1-3)]GalNAc
# Summary of the method: as §1
# [12] = target: Neu5Ac(a2-3)Gal(b1-4)[Fuc(a1-3)]GlcNAc(b1-6)[Neu5Ac(a2-3)Gal(b1-3)]GalNAc
# Summary of the method: as §1
# [13] = target: Neu5Ac(a2-3)Gal(b1-4)[Fuc(a1-3)]GlcNAc6S
# Summary of the method: as §1
# [14] = target: Neu5Ac(a2-3)Gal6S(b1-4)GlcNAc
# Summary of the method: as §1
# [15] = target: Neu5Ac(a2-3)Gal6S(b1-4)[Fuc(a1-3)]GlcNAc
# Summary of the method: as §1
# Neu5Ac(a2-3)GalNAc = target: Neu5Ac(a2-3)GalNAc
# Summary of the method: as §1
# [16] = target: Neu5Ac(a2-3)GalNAc(b1-4)GlcNAc
# Summary of the method: as §1
# [17] = target: Neu5Ac(a2-3)[GalNAc(b1-4)]Gal(b1-4)Glc
# Summary of the method: as §1
# [18] = target: Neu5Ac(a2-3)[GalNAc(b1-4)]Gal(b1-4)GlcNAc
# Summary of the method: as §1
# [19] = target: Neu5Ac(a2-3)[GalNAc(b1-4)]Gal(b1-4)GlcNAc(b1-3)GalNAc
# Summary of the method: as §1
# [20] = target: Neu5Ac(a2-3)[Neu5Ac(a2-6)]GalNAc
# Summary of the method: as §1
# Neu5Ac(a2-6)Gal = target: Neu5Ac(a2-6)Gal
# Summary of the method: as §1
# [21] = target: Neu5Ac(a2-6)Gal(b1-3)GlcNAc(b1-3)[Gal(b1-4)GlcNAc(b1-6)]Gal(b1-4)Glc
# Summary of the method: as §1
# Neu5Ac(a2-6)Gal(b1-4)Glc = target: Neu5Ac(a2-6)Gal(b1-4)Glc
# Summary of the method: as §1
# [22] = target: Neu5Ac(a2-6)Gal(b1-4)GlcNAc
# Summary of the method: as §1
# [23] = target: Neu5Ac(a2-6)Gal(b1-4)GlcNAc(b1-2)Man
# Summary of the method: as §1
# [24] = target: Neu5Ac(a2-6)Gal(b1-4)GlcNAc(b1-2)Man(a1-3)Man(b1-4)GlcNAc(b1-4)GlcNAc
# Summary of the method: as §1
# [25] = target: Neu5Ac(a2-6)Gal(b1-4)GlcNAc(b1-2)Man(a1-3)[Gal(b1-4)GlcNAc(b1-2)Man(a1-6)]Man(b1-4)GlcNAc(b1-4)GlcNAc
# Summary of the method: as §1
# [26] = target: Neu5Ac(a2-6)Gal(b1-4)GlcNAc(b1-2)Man(a1-3)[GlcNAc(b1-4)][Neu5Ac(a2-6)Gal(b1-4)GlcNAc(b1-2)Man(a1-6)]Man(b1-4)GlcNAc(b1-4)GlcNAc
# Summary of the method: as §1
# [27] = target: Neu5Ac(a2-6)Gal(b1-4)GlcNAc(b1-2)Man(a1-3)[Man(a1-6)]Man(b1-4)GlcNAc(b1-4)GlcNAc
# Summary of the method: as §1
binder,measurement,setting,value
B1,glycan array binding signal (z-score),[1],-0.311
same,glycan array binding signal (z-score),[2],0.7
same,glycan array binding signal (z-score),[3],-0.321
same,glycan array binding signal (z-score),[4],-0.316
same,glycan array binding signal (z-score),[5],-0.377
same,glycan array binding signal (z-score),[6],0.002
same,glycan array binding signal (z-score),[7],-0.349
same,glycan array binding signal (z-score),[8],-0.267
same,glycan array binding signal (z-score),[9],-0.211
same,glycan array binding signal (z-score),[10],-0.141
same,glycan array binding signal (z-score),[11],-0.392
same,glycan array binding signal (z-score),[12],-0.137
same,glycan array binding signal (z-score),[13],-0.314
same,glycan array binding signal (z-score),[14],-0.401
same,glycan array binding signal (z-score),[15],-0.226
same,glycan array binding signal (z-score),Neu5Ac(a2-3)GalNAc,0.256
same,glycan array binding signal (z-score),[16],-0.321
same,glycan array binding signal (z-score),[17],-0.248
same,glycan array binding signal (z-score),[18],-0.368
same,glycan array binding signal (z-score),[19],-0.259
same,glycan array binding signal (z-score),[20],0.36
same,glycan array binding signal (z-score),Neu5Ac(a2-6)Gal,-0.129
same,glycan array binding signal (z-score),[21],-0.461
same,glycan array binding signal (z-score),Neu5Ac(a2-6)Gal(b1-4)Glc,-0.215
same,glycan array binding signal (z-score),[22],-0.348
same,glycan array binding signal (z-score),[23],0.37
same,glycan array binding signal (z-score),[24],-0.304
same,glycan array binding signal (z-score),[25],0.184
same,glycan array binding signal (z-score),[26],-0.328
same,glycan array binding signal (z-score),[27],-0.309
